Reference: the supplement of paper PMC8728848
The other results are listed elsewhere or left out.

How the values were obtained:
Assay in all cases: glycan array binding signal (z-score within array); higher = stronger binding
Settings in all cases: glycan notation: IUPAC condensed, linker removed
[1] = target: Gal(b1-4)GlcNAc(b1-2)Man(a1-3)[Gal(b1-4)GlcNAc(b1-2)Man(a1-6)]Man(b1-4)GlcNAc(b1-4)GlcNAc
Method in brief: (§1)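 The Consortium for Functional Glycomics database supplied 3228 glycan arrays, of which those lacking an available protein sequence were dropped. The binding signal, a within-array Z-score, was averaged across arrays of the same protein sequence and across linkers. Negative scores can be read as non-binding.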

[2] = target: Gal(b1-4)GlcNAc(b1-2)Man(a1-3)[Gal(b1-4)GlcNAc(b1-2)Man(a1-6)]Man(b1-4)GlcNAc(b1-4)[Fuc(a1-6)]GlcNAc
Method in brief: as §1

[3] = target: Gal(b1-4)GlcNAc(b1-2)Man(a1-3)[Gal(b1-4)GlcNAc(b1-2)Man(a1-6)][Gal(b1-4)GlcNAc(b1-4)]Man(b1-4)GlcNAc(b1-4)[Fuc(a1-6)]GlcNAc
Method in brief: as §1

[4] = target: Gal(b1-4)GlcNAc(b1-2)Man(a1-3)[Gal(b1-4)GlcNAc(b1-2)Man(a1-6)][GlcNAc(b1-4)]Man(b1-4)GlcNAc(b1-4)[Fuc(a1-6)]GlcNAc
Method in brief: as §1

[5] = target: Gal(b1-4)GlcNAc(b1-2)Man(a1-3)[GlcNAc(b1-2)Man(a1-6)]Man(b1-4)GlcNAc(b1-4)GlcNAc
Method in brief: as §1

[6] = target: Gal(b1-4)GlcNAc(b1-2)Man(a1-3)[GlcNAc(b1-4)][Gal(b1-4)GlcNAc(b1-2)Man(a1-6)]Man(b1-4)GlcNAc(b1-4)GlcNAc
Method in brief: as §1

[7] = target: Gal(b1-4)GlcNAc(b1-2)Man(a1-3)[Man(a1-6)]Man(b1-4)GlcNAc(b1-4)GlcNAc
Method in brief: as §1

[8] = target: Gal(b1-4)GlcNAc(b1-2)Man(a1-6)Man(b1-4)GlcNAc(b1-4)GlcNAc
Method in brief: as §1

[9] = target: Gal(b1-4)GlcNAc(b1-2)Man(a1-6)[GlcNAc(b1-2)Man(a1-3)]Man(b1-4)GlcNAc(b1-4)GlcNAc
Method in brief: as §1

[10] = target: Gal(b1-4)GlcNAc(b1-2)Man(a1-6)[Man(a1-3)]Man(b1-4)GlcNAc(b1-4)GlcNAc
Method in brief: as §1

[11] = target: Gal(b1-4)GlcNAc(b1-2)[Gal(b1-4)GlcNAc(b1-4)]Man(a1-3)[Gal(b1-4)GlcNAc(b1-2)Man(a1-6)]Man(b1-4)GlcNAc(b1-4)GlcNAc
Method in brief: as §1

[12] = target: Gal(b1-4)GlcNAc(b1-2)[Gal(b1-4)GlcNAc(b1-4)]Man(a1-3)[Gal(b1-4)GlcNAc(b1-2)[Gal(b1-4)GlcNAc(b1-6)]Man(a1-6)]Man(b1-4)GlcNAc(b1-4)GlcNAc
Method in brief: as §1

[13] = target: Gal(b1-4)GlcNAc(b1-2)[Gal(b1-4)GlcNAc(b1-4)]Man(a1-3)[GlcNAc(b1-4)][Gal(b1-4)GlcNAc(b1-2)Man(a1-6)]Man(b1-4)GlcNAc(b1-4)GlcNAc
Method in brief: as §1

[14] = target: Gal(b1-4)GlcNAc(b1-2)[Gal(b1-4)GlcNAc(b1-4)]Man(a1-3)[GlcNAc(b1-4)][Gal(b1-4)GlcNAc(b1-2)[Gal(b1-4)GlcNAc(b1-6)]Man(a1-6)]Man(b1-4)GlcNAc(b1-4)GlcNAc
Method in brief: as §1

[15] = target: Gal(b1-4)GlcNAc(b1-2)[Gal(b1-4)GlcNAc(b1-6)]Man(a1-6)[Gal(b1-4)GlcNAc(b1-2)Man(a1-3)]Man(b1-4)GlcNAc(b1-4)GlcNAc
Method in brief: as §1

[16] = target: Gal(b1-4)GlcNAc(b1-2)[Gal(b1-4)GlcNAc(b1-6)]Man(a1-6)[Gal(b1-4)GlcNAc(b1-2)Man(a1-3)]Man(b1-4)GlcNAc(b1-4)[Fuc(a1-6)]GlcNAc
Method in brief: as §1

[17] = target: Gal(b1-4)GlcNAc(b1-2)[Gal(b1-4)GlcNAc(b1-6)]Man(a1-6)[GlcNAc(b1-4)][Gal(b1-4)GlcNAc(b1-2)Man(a1-3)]Man(b1-4)GlcNAc(b1-4)GlcNAc
Method in brief: as §1

[18] = target: Gal(b1-4)GlcNAc(b1-2)[Gal(b1-4)GlcNAc(b1-6)]Man(a1-6)[GlcNAc(b1-4)][Gal(b1-4)GlcNAc(b1-2)[Gal(b1-4)GlcNAc(b1-4)]Man(a1-3)]Man(b1-4)GlcNAc(b1-4)[Fuc(a1-6)]GlcNAc
Method in brief: as §1

[19] = target: Gal(b1-4)GlcNAc(b1-3)Gal(b1-3)GalNAc
Method in brief: as §1

B1: Gal-9-hFc (Mus musculus), O08573-2 (protein)
chain: MALFSAQSPYINPIIPFTGPIQGGLQEGLQVTLQGTTKSFAQRFVVNFQNSFNGNDIAFHFNPRFEEGGYVVCNTKQNGQWGPEERKMQMPFQKGMPFELCFLVQRSEFKVMVNKKFFVQYQHRVPYHLVDTIAVSGCLKLSFITFQTQNFRPAHQAPMAQTTIHMVHSTPGQMFSTPGIPPVVYPTPAYTIPFYTPIPNGLYPSKSIMISGNVLPDATRFHINLRCGGDIAFHLNPRFNENAVVRNTQINNSWGQEERSLLGRMPFSRGQSFSVWIICEGHCFKVAVNGQHMCEYYHRLKNLQDINTLEVAGDIQLTHVQT
glycan array binding signal (z-score) [1]: -0.481
glycan array binding signal (z-score) [2]: -0.363
glycan array binding signal (z-score) [3]: -0.527
glycan array binding signal (z-score) [4]: -0.619
glycan array binding signal (z-score) [5]: -0.569
glycan array binding signal (z-score) [6]: -0.373
glycan array binding signal (z-score) [7]: 1.45
glycan array binding signal (z-score) [8]: -0.363
glycan array binding signal (z-score) [9]: -0.396
glycan array binding signal (z-score) [10]: -0.279
glycan array binding signal (z-score) [11]: -0.075
glycan array binding signal (z-score) [12]: -0.541
glycan array binding signal (z-score) [13]: -0.401
glycan array binding signal (z-score) [14]: -0.266
glycan array binding signal (z-score) [15]: -0.185
glycan array binding signal (z-score) [16]: -0.447
glycan array binding signal (z-score) [17]: -0.355
glycan array binding signal (z-score) [18]: -0.49
glycan array binding signal (z-score) [19]: -0.39
